About 14,000 (4.5%) of roughly 310,000 compounds showed an effect of 50% or more. Effects have a minus sign here. The list shows a part of the results.
Each compound was assayed against human ether-à-go-go-related gene (hERG) potassium channel (human, UniProt Q12809) (assay: primary screen, population patch clamp on CHO cells stably expressing hERG).
Sequence of human ether-à-go-go-related gene (hERG) potassium channel (Q12809 whole entry, looked up): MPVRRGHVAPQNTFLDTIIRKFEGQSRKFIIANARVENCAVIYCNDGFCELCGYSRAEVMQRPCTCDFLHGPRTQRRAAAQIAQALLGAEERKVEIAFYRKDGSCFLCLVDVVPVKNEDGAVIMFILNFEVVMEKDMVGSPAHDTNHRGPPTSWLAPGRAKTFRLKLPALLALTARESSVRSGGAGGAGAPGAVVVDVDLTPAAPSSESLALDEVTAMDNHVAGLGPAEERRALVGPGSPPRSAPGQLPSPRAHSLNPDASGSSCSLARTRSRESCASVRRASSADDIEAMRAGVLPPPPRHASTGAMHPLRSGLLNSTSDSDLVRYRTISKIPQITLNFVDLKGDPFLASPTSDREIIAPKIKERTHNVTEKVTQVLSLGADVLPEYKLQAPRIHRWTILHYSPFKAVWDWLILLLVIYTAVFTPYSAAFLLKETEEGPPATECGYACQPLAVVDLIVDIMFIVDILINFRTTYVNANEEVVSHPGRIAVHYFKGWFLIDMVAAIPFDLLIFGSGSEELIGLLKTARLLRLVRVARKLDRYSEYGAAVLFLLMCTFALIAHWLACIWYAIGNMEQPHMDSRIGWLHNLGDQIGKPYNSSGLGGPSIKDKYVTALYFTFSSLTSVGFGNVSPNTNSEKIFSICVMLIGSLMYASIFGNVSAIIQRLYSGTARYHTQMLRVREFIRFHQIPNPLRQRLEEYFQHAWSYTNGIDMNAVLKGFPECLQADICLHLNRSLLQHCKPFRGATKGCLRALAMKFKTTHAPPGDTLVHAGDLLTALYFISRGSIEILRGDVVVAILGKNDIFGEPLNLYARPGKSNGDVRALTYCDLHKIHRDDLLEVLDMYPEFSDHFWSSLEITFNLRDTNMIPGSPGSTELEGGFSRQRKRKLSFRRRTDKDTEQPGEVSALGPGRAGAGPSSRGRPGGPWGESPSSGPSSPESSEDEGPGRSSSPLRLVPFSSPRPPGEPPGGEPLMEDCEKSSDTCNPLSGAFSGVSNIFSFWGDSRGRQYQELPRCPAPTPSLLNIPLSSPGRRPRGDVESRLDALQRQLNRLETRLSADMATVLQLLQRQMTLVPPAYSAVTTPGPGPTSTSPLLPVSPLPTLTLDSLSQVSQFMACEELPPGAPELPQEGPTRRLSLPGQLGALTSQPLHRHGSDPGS
With `O=C(Nc1ccc2c(c1)OCO2)C1CCN(S(=O)(=O)c2cccs2)CC1` the “hERG current change (%, negative = inhibition) at 10uM” value was -8.65%. In the case of `COc1ccc(CCNC(=O)COC(=O)C23CC4CC(CC(Br)(C4)C2)C3)cc1`, the “hERG current change (%, negative = inhibition) at 10uM” value is reported as 7.64%. For `CC(C)c1nc2oc3c(=O)[nH]cnc3c2c2c1COC(C)(C)C2`, the “hERG current change (%, negative = inhibition) at 10uM” value was 5.89%. For `Cc1ccccc1-c1nsc(SCC(=O)Nc2ccc3c(c2)OCO3)n1`, the “hERG current change (%, negative = inhibition) at 10uM” value was 25.7%. In the case of `Cc1cc(=O)oc(C)c1C(=O)NCc1cccnc1`, the “hERG current change (%, negative = inhibition) at 10uM” value is reported as 6.68%. With `COC(=O)C1=COC(C)C2CN3CCC4(C(=O)Nc5ccccc54)C3CC12` (stereo not drawn) the “hERG current change (%, negative = inhibition) at 10uM” value was -5.81%. For `Nc1ccccc1SC1CC(=O)N(c2ccc(Cl)c(Cl)c2)C1=O` (stereo not drawn), the “hERG current change (%, negative = inhibition) at 10uM” value was 17.5%. `O=C1CCCN1CC1CCN(Cc2nc(CC3CC3)no2)CC1` was tested, and the “hERG current change (%, negative = inhibition) at 10uM” value was -0.629%. With `Cc1ccccc1CCNC(=O)CCn1ccc2cc(S(=O)(=O)N3CCCC3)ccc21` the “hERG current change (%, negative = inhibition) at 10uM” value was -20.3%. For `CCOc1ccc(C2N(c3ccc(F)cc3)C(=O)C3CCCN32)cc1` (stereo not drawn), the “hERG current change (%, negative = inhibition) at 10uM” value was 7.56%. For `O=C(c1ccc(Cl)cc1)N1CCn2c1nc1ccccc12`, the “hERG current change (%, negative = inhibition) at 10uM” value was -11.8%. For `COc1cc(/C=C\C(=O)Nc2cc(=O)n(C)c(=O)n2C)cc(OC)c1OC`, the “hERG current change (%, negative = inhibition) at 10uM” value was 1.94%. `O=C(NC1CCCCC1)c1ccc2c(c1)OCO2` was tested, and the “hERG current change (%, negative = inhibition) at 10uM” value was 15.9%. In the case of `O=C(N=Nc1c(O)[nH]c2ccccc12)c1cc(NS(=O)(=O)c2cccs2)cc(NS(=O)(=O)c2cccs2)c1`, the “hERG current change (%, negative = inhibition) at 10uM” value is reported as 6.25%. For `C=CCn1cnc2c(c1=O)c1nc3ccccc3nc1n2/N=C/c1cc(OC)c(OC)c(OC)c1`, the “hERG current change (%, negative = inhibition) at 10uM” value was -22.1%. For `C(=N\n1cnnc1)/c1ccc2c(c1)OCO2`, the “hERG current change (%, negative = inhibition) at 10uM” value was 4.26%. In the case of `Cc1cccc(C(=O)N[C@@H]2c3ccccc3C[C@@H]2O)n1`, the “hERG current change (%, negative = inhibition) at 10uM” value is reported as -0.112%. For `Cc1cc(=O)oc2c(C)c(OC(C)C(=O)NCCCN3CCCC3=O)ccc12` (stereo not drawn), the “hERG current change (%, negative = inhibition) at 10uM” value was 14.3%. `COc1ccc(/C=N/S(=O)(=O)CCc2ccccc2)c(OC)c1` was tested, and the “hERG current change (%, negative = inhibition) at 10uM” value was 3.58%. For `CCCCCC(=O)O/N=C(\C)c1ccn(S(=O)(=O)c2ccccc2)c1`, the “hERG current change (%, negative = inhibition) at 10uM” value was 19.4%. `O=c1[nH]c(=S)n(C2CC2)c(O)c1C=Nc1ccc2c(c1)OCO2` was tested, and the “hERG current change (%, negative = inhibition) at 10uM” value was -13.6%. For `COc1cc(NC(=O)CCN2CCN(Cc3ccccc3)CC2)cc(OC)c1`, the “hERG current change (%, negative = inhibition) at 10uM” value was -20.1%. `Cc1ccc(NC(=O)C2CCN(S(=O)(=O)c3ccc4c(c3)OCCCO4)CC2)nc1` was tested, and the “hERG current change (%, negative = inhibition) at 10uM” value was -4.85%. In the case of `Cc1ccccc1OCC(O)CN(Cc1ccccc1O)C1CCCCC1` (stereo not drawn), the “hERG current change (%, negative = inhibition) at 10uM” value is reported as -28%.

Reference: publication PMC4336329 (PLoS ONE, 2015)
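Also: peak tail current of the secondary pulse compared with the same well before compound.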
